# Several values for one entry are separate records, joined by “and”; a condition that tells them apart may be missing. Identical values can stand only once. This list was built around the results that the source calls inconclusive (neither active nor inactive); the mix of calls is not that of the screen. For some of these results: Where the call is inconclusive, the potency comes from a doubtful curve fit. Activity calls are given as the source filed them. Unless noted, calls follow the shape of the dose curve; as a rule, active = well fitted curve in the direction sought with a large enough effect; inconclusive = small, poorly fitted or top-dose-only effect, or another doubt; inactive = no such curve, though single readings can be large; an effect the other way counts as inactive or inconclusive.
# Assays:
# [1] = target: Chromobox protein homolog 1 (Homo sapiens) (UniProt P83916); assay: qHTS Validation Assay for Inhibitors of HP1-beta Chromodomain Interactions with Methylated Histone Tails (AID 488953); also: nearly all actives have a fitted effect of over 50% in size; also: potency is read from the fitted curve at half-maximal effect
# UniProt P83916, sequence (P83916 whole entry, looked up): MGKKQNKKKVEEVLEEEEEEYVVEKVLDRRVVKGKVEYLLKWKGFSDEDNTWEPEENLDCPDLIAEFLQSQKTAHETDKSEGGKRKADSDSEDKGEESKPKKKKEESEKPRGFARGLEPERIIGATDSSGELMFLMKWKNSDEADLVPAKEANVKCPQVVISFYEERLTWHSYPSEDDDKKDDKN
# Procedure, shortened: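 AlphaScreen proximity signal from streptavidin donor and nickel chelate acceptor beads (final 10 ug/mL) after 30 min dark incubation. Compounds had 30 min at room temperature with preformed complex of 50 nM HP1-beta and 50 nM b-H3(1-18)K9me3 in PBS pH 7.4 with 0.01% Tween-20.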
# [2] = target: ATPase family AAA domain-containing protein 5 (Homo sapiens) (UniProt Q96QE3); assay: Validation screen for small molecules that inhibit ELG1-dependent DNA repair in human embryonic kidney (HEK293T) cells expressing luciferase-tagged ELG1 (AID 493107); details: HEK293T ELG1-luciferase level, luminescence, 5-fluorouridine co-treatment, 16 h; series mostly up to 46.1 µM; also: potency is read from the fitted curve at half-maximal effect; nearly all actives have a fitted effect of over 70% in size
# UniProt Q96QE3, sequence (Q96QE3 whole entry, looked up, the tested form may be a part): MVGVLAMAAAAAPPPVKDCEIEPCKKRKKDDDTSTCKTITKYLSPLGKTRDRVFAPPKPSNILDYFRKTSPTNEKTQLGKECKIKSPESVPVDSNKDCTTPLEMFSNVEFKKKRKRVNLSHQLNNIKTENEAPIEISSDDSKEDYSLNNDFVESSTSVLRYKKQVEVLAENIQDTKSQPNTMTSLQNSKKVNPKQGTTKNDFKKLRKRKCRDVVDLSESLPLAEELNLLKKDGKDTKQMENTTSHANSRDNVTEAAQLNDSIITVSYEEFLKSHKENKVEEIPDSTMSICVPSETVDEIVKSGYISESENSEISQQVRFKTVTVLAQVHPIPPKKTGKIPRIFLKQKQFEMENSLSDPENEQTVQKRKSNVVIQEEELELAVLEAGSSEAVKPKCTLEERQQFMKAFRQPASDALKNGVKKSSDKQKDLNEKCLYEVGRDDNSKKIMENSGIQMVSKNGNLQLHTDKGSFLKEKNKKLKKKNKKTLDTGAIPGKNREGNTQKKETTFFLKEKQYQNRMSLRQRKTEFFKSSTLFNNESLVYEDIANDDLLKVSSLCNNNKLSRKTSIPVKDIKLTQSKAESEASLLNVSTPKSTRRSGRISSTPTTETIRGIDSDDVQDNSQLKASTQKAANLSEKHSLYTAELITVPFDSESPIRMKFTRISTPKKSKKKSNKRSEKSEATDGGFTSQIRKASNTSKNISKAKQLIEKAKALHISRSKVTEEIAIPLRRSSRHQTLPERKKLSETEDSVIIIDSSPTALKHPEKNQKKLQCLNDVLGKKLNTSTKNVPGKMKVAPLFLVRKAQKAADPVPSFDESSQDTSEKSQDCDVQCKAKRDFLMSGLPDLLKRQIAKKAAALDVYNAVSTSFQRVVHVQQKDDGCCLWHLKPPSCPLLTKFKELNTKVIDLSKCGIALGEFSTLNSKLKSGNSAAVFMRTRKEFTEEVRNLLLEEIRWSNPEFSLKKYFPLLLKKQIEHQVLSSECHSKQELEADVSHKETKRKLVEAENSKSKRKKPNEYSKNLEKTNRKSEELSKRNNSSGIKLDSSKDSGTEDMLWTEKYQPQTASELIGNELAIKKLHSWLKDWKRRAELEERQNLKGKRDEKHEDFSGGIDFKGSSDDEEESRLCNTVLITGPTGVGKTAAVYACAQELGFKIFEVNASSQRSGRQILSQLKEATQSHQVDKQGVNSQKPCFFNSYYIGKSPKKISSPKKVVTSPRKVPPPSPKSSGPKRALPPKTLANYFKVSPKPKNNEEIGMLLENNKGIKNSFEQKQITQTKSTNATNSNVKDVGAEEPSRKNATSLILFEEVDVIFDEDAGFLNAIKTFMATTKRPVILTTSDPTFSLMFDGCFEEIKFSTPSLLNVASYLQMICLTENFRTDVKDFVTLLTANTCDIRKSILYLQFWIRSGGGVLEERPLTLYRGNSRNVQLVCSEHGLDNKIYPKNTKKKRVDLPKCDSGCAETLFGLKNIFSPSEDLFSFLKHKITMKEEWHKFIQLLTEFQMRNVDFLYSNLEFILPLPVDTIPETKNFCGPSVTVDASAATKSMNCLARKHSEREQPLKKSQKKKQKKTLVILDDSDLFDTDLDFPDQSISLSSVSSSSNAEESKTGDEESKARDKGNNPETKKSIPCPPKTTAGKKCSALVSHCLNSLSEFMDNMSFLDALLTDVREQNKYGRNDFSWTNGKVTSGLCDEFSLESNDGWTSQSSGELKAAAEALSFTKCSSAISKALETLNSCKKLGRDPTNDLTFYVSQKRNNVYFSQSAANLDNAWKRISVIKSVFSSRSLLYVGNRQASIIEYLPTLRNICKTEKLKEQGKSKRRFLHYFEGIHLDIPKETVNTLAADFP
# Procedure, shortened: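 Luciferase read-out, ONE-Glo, 30 min at room temperature, follows 16 h co-exposure at 37 C of compound and the DNA-damaging agent 5-fluorouridine. Cells: HEK293T with ELG1-luciferase fusion, 2,000 per well, DMSO as vehicle.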
# [3] = qHTS for Inhibitors of ATXN expression: Validation (AID 588378); also: nearly all actives have a fitted effect of over 75% in size; also: potency is read from the fitted curve at half-maximal effect
# Procedure, shortened: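 After a 2 h attachment and 24 h compound incubation, HEK293-ATXN2-FFLuc wells are read for fluorescence at 405 nm excitation/525 nm emission as a viability measure, then for Bright-Glo luminescence reflecting ATXN2 expression.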
# [4] = target: Galactokinase (Homo sapiens) (UniProt P51570); assay: qHTS Validation Assay for Inhibitors of Human Galactokinase (GALK) (AID 493189); also: potency is read from the fitted curve at half-maximal effect
# UniProt P51570, sequence (P51570 whole entry, looked up): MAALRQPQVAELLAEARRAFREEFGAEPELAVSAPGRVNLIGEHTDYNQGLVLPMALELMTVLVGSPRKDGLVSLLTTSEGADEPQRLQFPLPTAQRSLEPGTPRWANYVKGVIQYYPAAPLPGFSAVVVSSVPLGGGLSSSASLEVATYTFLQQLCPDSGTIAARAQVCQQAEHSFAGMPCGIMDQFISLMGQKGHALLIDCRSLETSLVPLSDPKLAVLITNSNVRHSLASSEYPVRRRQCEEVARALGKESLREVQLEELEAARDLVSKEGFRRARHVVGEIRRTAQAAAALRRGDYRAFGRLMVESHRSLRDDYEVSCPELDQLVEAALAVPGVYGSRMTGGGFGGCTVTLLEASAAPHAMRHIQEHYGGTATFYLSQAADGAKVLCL
# Procedure, shortened: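 Enzyme activity is inferred from ATP consumption: human GALK phosphorylates galactose (100 uM) using 35 uM ATP for 1 h at room temperature, and luciferase-based Kinase-Glo Plus reports unconsumed ATP.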
# [5] = Validation screen for small molecules that induce DNA re-replication in SW480 colon adenocarcinoma cells (AID 504364); also: potency is read from the fitted curve at half-maximal effect
# Procedure, shortened: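 Image-based DNA content read-out: Hoechst stain 40 min, total nuclear fluorescence intensity (ex 405 nm, em 500-530 nm) after 48 h compound exposure of 250 SW480 cells/well at 37 C, 5% CO2, versus DMSO vehicle.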
# [6] = target: Peptidyl-prolyl cis-trans isomerase NIMA-interacting 1 (Homo sapiens) (UniProt Q13526); assay: qHTS Validation Assay to Find Inhibitors of Pin1 (AID 504536; active = well fitted inhibition curve with a large enough effect in the polarisation, with a control signal flat, not every such curve was filed as active; inconclusive = small, poorly fitted or top-dose-only effect, or effect the other way; the % refers to the polarisation; also: potency is read from the fitted curve at half-maximal effect)
# UniProt Q13526, sequence (Q13526 whole entry, looked up): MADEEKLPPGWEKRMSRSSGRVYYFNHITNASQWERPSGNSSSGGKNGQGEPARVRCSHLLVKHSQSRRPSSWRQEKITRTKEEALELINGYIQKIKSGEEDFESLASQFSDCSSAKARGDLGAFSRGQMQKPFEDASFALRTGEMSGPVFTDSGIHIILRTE
# Procedure, shortened: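 Fluorescence polarization competition: compounds (titration) displace HiFluor-488-labeled Pin1-1b peptide from Pin1 (0.3 uM final) in pH 7.5 HEPES buffer with DTT, 10 min at room temperature; %Activity normalized to no-enzyme wells, curves fitted.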
# [7] = target: Phosphoglycerate kinase, glycosomal (Trypanosoma brucei brucei) (UniProt P07378); assay: qHTS Validation Assay to Find Inhibitors of Phosphoglycerate Kinase (AID 504547); also: potency is read from the fitted curve at half-maximal effect
# Procedure, shortened: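 Luminescence end-point (Kinase-Glo Plus, 10 min) after a 60 min room-temperature coupled reaction. GAPDH at 100nM final supplies 1,3-BPG to PGK. Buffer: 100mM TEA pH 7.6, 5mM MgCl2, 0.01% Tween-20. Wells lacking PGK served as controls.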
# [8] = target: Ubiquitin carboxyl-terminal hydrolase 1 (Homo sapiens) (UniProt O94782); assay: Inhibitors of USP1/UAF1: Pilot qHTS (AID 504865); also: potency is read from the fitted curve at half-maximal effect;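 also: rhodamine fluorescence freed from ubiquitin-rhodamine substrate followed over time; nearly all actives have a fitted effect of over 35% in size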
# UniProt O94782, sequence (O94782 whole entry, looked up): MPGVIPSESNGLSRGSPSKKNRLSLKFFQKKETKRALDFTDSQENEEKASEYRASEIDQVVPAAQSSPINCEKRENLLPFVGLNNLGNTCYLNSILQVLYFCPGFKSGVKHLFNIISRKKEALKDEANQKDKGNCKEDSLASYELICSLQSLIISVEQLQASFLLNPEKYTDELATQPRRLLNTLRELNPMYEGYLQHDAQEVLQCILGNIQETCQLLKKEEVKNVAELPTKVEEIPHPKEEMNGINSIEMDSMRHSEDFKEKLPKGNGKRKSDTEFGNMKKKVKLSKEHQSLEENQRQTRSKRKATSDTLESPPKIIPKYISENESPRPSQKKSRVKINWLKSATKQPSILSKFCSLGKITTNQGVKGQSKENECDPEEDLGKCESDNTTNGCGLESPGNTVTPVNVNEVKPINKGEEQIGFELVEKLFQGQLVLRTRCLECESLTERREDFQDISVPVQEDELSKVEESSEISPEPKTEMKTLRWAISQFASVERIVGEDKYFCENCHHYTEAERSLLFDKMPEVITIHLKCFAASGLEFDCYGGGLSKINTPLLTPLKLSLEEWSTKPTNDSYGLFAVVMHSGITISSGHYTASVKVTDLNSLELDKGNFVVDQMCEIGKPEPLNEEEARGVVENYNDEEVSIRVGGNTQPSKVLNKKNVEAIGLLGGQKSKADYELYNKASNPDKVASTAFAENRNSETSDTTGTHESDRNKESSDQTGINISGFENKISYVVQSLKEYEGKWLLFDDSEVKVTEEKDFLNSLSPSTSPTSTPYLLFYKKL
# Procedure, shortened: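 Enzyme-free wells gave the negative control, while test wells held 1nM USP1/UAF1 preincubated with compound for 15 min at room temperature. Ub-Rho at 150nM final started the reaction, and fluorescence at 480/540 nm was recorded kinetically.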
# [9] = qHTS for Inhibitors of ATXN expression: Validation of Cytotoxic Assay (AID 588349); also: potency is read from the fitted curve at half-maximal effect
# Procedure, shortened: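 Cytotoxicity counter-screen: ATP-based luminescent viability (CellTiter Glo) after 72 hr exposure of HEK293 cells to a compound titration at 37 degrees C.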
# [10] = target: phosphoglycerate mutase (Leishmania major) (UniProt Q4Q090); assay: qHTS Validation Assay to Find Inhibitors of Phosphoglycerate Mutase (AID 504548); details: Potency: inhibition qHTS; also: potency is read from the fitted curve at half-maximal effect
# Procedure, shortened: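 L. major PGAM (1.25nM final) was added to substrate buffer and pinned compound, incubated 45 minutes at room temperature, then Kinase-GloPlus added; luminescence read after 10 minutes. Buffer: 100 mM TEA pH 7.6, 5 mM MgCl2, 0.01% Tween-20.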
# [11] = target: D(1A) dopamine receptor (Homo sapiens) (UniProt P21728); assay: HTS Assay for Allosteric Agonists of the Human D1 Dopamine Receptor: Primary Screen for Potentiators (AID 488982)
# UniProt P21728, sequence (P21728 whole entry, looked up): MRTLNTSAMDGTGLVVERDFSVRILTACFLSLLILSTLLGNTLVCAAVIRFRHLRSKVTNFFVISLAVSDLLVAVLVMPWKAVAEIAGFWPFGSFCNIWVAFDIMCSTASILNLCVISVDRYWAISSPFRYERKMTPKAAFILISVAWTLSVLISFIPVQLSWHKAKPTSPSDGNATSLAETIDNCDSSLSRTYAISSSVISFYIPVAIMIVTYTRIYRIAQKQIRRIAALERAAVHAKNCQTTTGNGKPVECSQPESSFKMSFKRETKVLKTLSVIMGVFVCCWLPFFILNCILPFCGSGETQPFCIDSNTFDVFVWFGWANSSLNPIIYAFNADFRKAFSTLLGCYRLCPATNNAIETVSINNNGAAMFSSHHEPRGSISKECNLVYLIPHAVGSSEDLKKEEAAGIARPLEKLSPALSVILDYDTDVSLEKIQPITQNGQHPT
# Procedure, shortened: (§1)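 Calcium flux in an inducible, force-coupled HEK293 Trex D1 line (overnight at 30 C): agonist mode is the 180 s kinetic read after compound; potentiator mode is the following 180 s read after dopamine at EC20.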
# [12] = Validation screen for small molecules that induce genotoxicity in human embryonic kidney (HEK293T) cells expressing luciferase-tagged ELG1 (AID 493106); also: potency is read from the fitted curve at half-maximal effect
# Procedure, shortened: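 ELG1-luciferase reporter readout (ONE-Glo, 30 min, room temperature) after 16 hr compound treatment at 37 °C of HEK293T cells at 2,000 per well. Rising luminescence flags genotoxic stress.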
# [13] = Nrf2 qHTS screen for inhibitors: Validation (AID 493153; active = well fitted inhibition curve with a large enough effect in the main read-out, with a control signal flat, not every such curve was filed as active; inconclusive = small, poorly fitted or top-dose-only effect, or effect the other way, or a change in a side signal; inactive = no such curve, though single readings can be large or run the other way; also: potency is read from the fitted curve at half-maximal effect)
# Procedure, shortened: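 Concentration-response on A549 ARE_Fluc reporter cells exposed 18-24 h at 37 C, 5% CO2. Cytotoxicity read first by CellTiter-Fluor fluorescence (Ex 405/Em 525), then Nrf2 inhibition by BugLite luminescence after 15 min.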
# [14] = target: Transient receptor potential cation channel subfamily V member 1 (Homo sapiens) (UniProt Q8NER1); assay: HTS Assay for Compounds that Act as Enhancers of the Vanilloid Receptor 1 (AID 488979); also: potency is read from the fitted curve at half-maximal effect
# UniProt Q8NER1, sequence (Q8NER1 whole entry, looked up): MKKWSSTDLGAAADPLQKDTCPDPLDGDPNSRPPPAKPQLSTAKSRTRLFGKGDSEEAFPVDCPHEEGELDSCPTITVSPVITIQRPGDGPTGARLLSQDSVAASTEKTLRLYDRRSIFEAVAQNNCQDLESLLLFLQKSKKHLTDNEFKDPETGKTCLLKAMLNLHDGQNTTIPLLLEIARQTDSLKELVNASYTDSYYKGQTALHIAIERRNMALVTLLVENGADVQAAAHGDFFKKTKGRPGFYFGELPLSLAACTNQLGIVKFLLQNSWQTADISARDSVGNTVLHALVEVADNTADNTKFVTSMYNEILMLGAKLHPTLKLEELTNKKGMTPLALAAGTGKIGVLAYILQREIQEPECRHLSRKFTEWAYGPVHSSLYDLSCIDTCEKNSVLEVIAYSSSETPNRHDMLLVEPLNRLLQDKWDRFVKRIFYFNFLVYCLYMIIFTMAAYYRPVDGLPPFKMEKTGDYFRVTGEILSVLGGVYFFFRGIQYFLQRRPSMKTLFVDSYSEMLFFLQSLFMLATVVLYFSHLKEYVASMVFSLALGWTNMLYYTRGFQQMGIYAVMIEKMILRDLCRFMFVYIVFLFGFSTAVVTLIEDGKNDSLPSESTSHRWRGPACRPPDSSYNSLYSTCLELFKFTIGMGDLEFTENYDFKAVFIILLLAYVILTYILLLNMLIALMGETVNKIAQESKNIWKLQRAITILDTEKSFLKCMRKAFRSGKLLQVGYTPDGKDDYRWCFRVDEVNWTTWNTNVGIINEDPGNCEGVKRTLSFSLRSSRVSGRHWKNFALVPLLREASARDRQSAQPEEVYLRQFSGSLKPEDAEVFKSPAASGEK
# Procedure, shortened: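 Calcium influx kinetics via Fluo-8 (480/520 nm) in TRPV1-expressing cells, 2000/well cultured overnight at 35.5C. Compound-alone read 3 min (agonist phase), followed by EC20 capsaicin challenge for 2 min (enhancer phase).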
# [15] = target: D(1A) dopamine receptor (Homo sapiens) (UniProt P21728); assay: HTS Assay for Allosteric Agonists of the Human D1 Dopamine Receptor: Primary Screen for Agonists (AID 488981); also: potency is read from the fitted curve at half-maximal effect
# Procedure, shortened: as §1
# [16] = target: Methanococcus maripaludis chaperonin (MmCpn) (UniProt Q6LX38); assay: High-Throughput Screening for Modulators of Cytosolic Chaperonin Activity: MmCpn Primary Screen (AID 488978); details: Purified MmCpn ATPase activity, ADP HTRF detection, 10 min; also: potency is read from the fitted curve at half-maximal effect
# Procedure, shortened: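 HTRF readout (320 nm excitation, 590/665 nm emission) of ADP generated by 50 nM MmCpn hydrolysing 30 uM ATP during 10 min at 37C; compound preincubated 5 min RT.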
# Tags tell the direction and shape of the fitted curve or compound fluorescence and quenching.
smiles,measurement,setting,value
COc1cc2c(cc1O)CC[C@@H]1[C@@H]2CC[C@]2(C)[C@@H](O)CC[C@@H]12,Potency,[1],"inconclusive: 50.1 µM [inhibitor, partial curve]"
same,Potency,[2],"inconclusive: 11.6 µM [inhibitor, partial curve, poor fit]"
same,Potency,[3],inactive
CC1(C)CCC2=C(O1)c1ccccc1C(=O)C2=O,Potency,[1],"inconclusive: 79.4 µM [inhibitor, partial curve, poor fit]"
same,Potency,[2],"inconclusive: 16.4 µM [inhibitor, single point]"
same,Potency,[4],"inconclusive: 35.5 µM [inhibitor, single point]"
same,Potency,[5],"inconclusive: 9.2 µM [activator, partial curve, poor fit]"
same,Potency,[6],"inconclusive: 19 µM [falling, partial curve]"
same,Potency,[7],"inconclusive: 37.9 µM [inhibitor, single point]"
same,Potency,[8],active: 5.01 µM
same,Potency,[9],active: 22.4 µM
same,Potency,[3],active: 22.4 µM
O=C1c2c(O)ccc(O)c2C(=O)c2c(NCCNCCO)ccc(NCCNCCO)c21,Potency,[1],active: 5.62 µM
same,Potency,[2],active: 4.61 µM
same,Potency,[7],"inconclusive: 21.3 µM [inhibitor, single point]"
same,Potency,[10],"inconclusive: 23.9 µM [inhibitor, single point]"
same,Potency,[8],"inconclusive: 35.5 µM [inhibitor, single point] and inconclusive: 56.2 µM [inhibitor, partial curve, poor fit] and inconclusive: 79.4 µM [inhibitor, partial curve, poor fit]"
same,Potency,[9],"inconclusive: 20 µM [cytotoxic, partial curve, poor fit]"
same,Potency,[3],"inconclusive: 0.316 µM [inhibitor, full curve, poor fit]"
COc1cccc(-c2cc(=O)c3ccccc3o2)c1N,Potency,[11],inactive
same,Potency,[12],active: 2.91 µM
same,Potency,[2],"inconclusive: 1.83 µM [activator, partial curve]"
CNC[C@H](O)c1ccc(O)c(O)c1,Potency,[1],inactive
same,Potency,[7],"inconclusive: 37.9 µM [inhibitor, single point]"
same,Potency,[8],"inconclusive: 63.1 µM [inhibitor, partial curve, poor fit] and inactive"
CC(C)(C)c1ccc(C(=O)CCCN2CCC(OC(c3ccccc3)c3ccccc3)CC2)cc1,Potency,[1],"inconclusive: 35.5 µM [inhibitor, full curve]"
same,Potency,[2],"inconclusive: 20.6 µM [inhibitor, single point]"
same,Potency,[8],"inconclusive: 22.4 µM [inhibitor, full curve] and inconclusive: 63.1 µM [inhibitor, partial curve, poor fit]"
COCCOC(=O)C1=C(C)NC(C)=C(C(=O)OC/C=C/c2ccccc2)C1c1cccc([N+](=O)[O-])c1 (stereo not drawn),Potency,[1],"inconclusive: 25.1 µM [inhibitor, partial curve, poor fit]"
same,Potency,[2],"inconclusive: 18.3 µM [inhibitor, single point]"
same,Potency,[13],"inconclusive: 23.1 µM [inhibitor, single point]"
same,Potency,[6],inactive
same,Potency,[8],"inconclusive: 25.1 µM [inhibitor, full curve] and inconclusive: 31.6 µM [inhibitor, partial curve, poor fit]"
same,Potency,[9],"inconclusive: 39.8 µM [cytotoxic, single point]"
same,Potency,[3],"inconclusive: 35.5 µM [inhibitor, single point]"
C#CCN(C)Cc1ccccc1,Potency,[14],"inconclusive: 3.55 µM [activator, single point]"
same,Potency,[9],inactive
C[C@](N)(Cc1ccc(O)c(O)c1)C(=O)O,Potency,[1],active: 1.89 µM
same,Potency,[7],active: 2.13 µM
same,Potency,[10],"inconclusive: 37.9 µM [inhibitor, single point]"
same,Potency,[9],"inconclusive: 31.6 µM [cytotoxic, single point]"
same,Potency,[3],"inconclusive: 22.4 µM [inhibitor, partial curve]"
OC(CN1CCC(Cc2ccc(F)cc2)CC1)c1ccc(Cl)cc1 (stereo not drawn),Potency,[15],"inconclusive: 14.1 µM [activator, partial curve]"
same,Potency,[10],"inconclusive: 0.0107 µM [inhibitor, partial curve, poor fit]"
same,Potency,[9],inactive
O=C1c2ccccc2C(=O)c2c(NCCc3ccc(O)cc3)ccc(NCCc3ccc(O)cc3)c21,Potency,[1],active: 1.78 µM
same,Potency,[2],active: 14.6 µM
same,Potency,[7],"inconclusive: 23.9 µM [inhibitor, partial curve]"
same,Potency,[10],"inconclusive: 23.9 µM [inhibitor, single point]"
same,Potency,[9],active: 8.91 µM
same,Potency,[3],active: 8.91 µM
Cc1cc(C(C)(C)C)c(O)c(C)c1CC1=NCCN1,Potency,[16],"inconclusive: 100 µM [inhibitor, single point]"
same,Potency,[5],inactive
same,Potency,[3],"inconclusive: 12.6 µM [inhibitor, partial curve, poor fit]"
O=C1NC(=O)/C(=C/c2ccc3nccnc3c2)S1,Potency,[12],"inconclusive: 29.1 µM [activator, partial curve, poor fit]"
same,Potency,[2],"inconclusive: 29.1 µM [activator, single point]"
same,Potency,[6],inactive
same,Potency,[8],"inconclusive: 89.1 µM [inhibitor, partial curve, poor fit]"

# — PubChem BioAssay (NCATS)
